This is one part of the list. Most values come without repeats; read them as rough.
What was measured:
Test in all cases: cell count relative to DMSO control; melanoma cells; higher = more viable cells
Conditions in all cases: library dose: low library concentration; 72 h
[1] = test system: WM115
[2] = test system: WM1716
[3] = test system: WM1745
[4] = test system: WM3526
[5] = test system: WM3619
[6] = test system: WM451Lu
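Also: cell number obtained by counting DAPI-stained nuclei in high-throughput microscope images with image analysis software, screen run in 1,536-well plates.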

Compound	cell count [1] [%]	cell count [2] [%]	cell count [3] [%]	cell count [4] [%]	cell count [5] [%]	cell count [6] [%]
O=C(O)c1ccc(-c2c[nH]c3ncc(-c4ccccc4)cc23)cc1C1CCCC1 + O=C(Nc1ccccc1)c1cc([N+](=O)[O-])ccc1Cl [GW9662] (first compound 0.16 µM, partner dose 2 µM)	95.2	106	104	91.9	112	99.5
CC1(C)NC(=O)N(c2ccc([N+](=O)[O-])c(C(F)(F)F)c2)C1=O [nilutamide] + N#Cc1c(O)c2c(-c3ccc(-c4ccccc4O)cc3)csc2[nH]c1=O [A769662] (first compound 1 µM, partner dose 2 µM)	103	76.9	96.2	102	120	108
O=c1[nH]nc(Sc2ncc([N+](=O)[O-])s2)n1-c1ccc2c(c1)OCCO2 + Nc1ncn([C@H]2C[C@H](O)[C@@H](CO)O2)c(=O)n1 [decitabine] (first compound 0.2 µM, partner dose 0.1 µM)	80.4	87.7	96.2	110	94.2	97.3
O=C(Nc1cccc(Cl)c1)Nc1ncc(CCNc2ncnc3ccsc23)s1 + Oc1nc(-c2ccc(C(F)(F)F)cc2)nc2c1CSCC2 [XAV939] (first compound 0.0008 µM, partner dose 2 µM)	73.5	67.9	75	104	108	103
O=c1[nH]nc(Sc2ncc([N+](=O)[O-])s2)n1-c1ccc2c(c1)OCCO2 + Clc1ccc(Nc2nnc(Cc3ccncc3)c3ccccc23)cc1 [vatalanib] (first compound 0.2 µM, partner dose 2 µM)	87.5	89.2	88.2	85	88.8	83.6
O=c1[nH]nc(Sc2ncc([N+](=O)[O-])s2)n1-c1ccc2c(c1)OCCO2 + C=CCn1c(=O)c2cnc(Nc3ccc(N4CCN(C)CC4)cc3)nc2n1-c1cccc(C(C)(C)O)n1 [MK1775] (first compound 0.2 µM, partner dose 0.02 µM)	93.7	90.5	87.6	99.4	95.4	106
CC1(C)NC(=O)N(c2ccc([N+](=O)[O-])c(C(F)(F)F)c2)C1=O [nilutamide] + O=C(O)c1ccc(-c2c[nH]c3ncc(-c4ccccc4)cc23)cc1C1CCCC1 [GSK650394] (first compound 1 µM, partner dose 0.16 µM)	98.1	99.6	93.4	85.7	88.1	92.3
CC1(C)NC(=O)N(c2ccc([N+](=O)[O-])c(C(F)(F)F)c2)C1=O [nilutamide] + CCN(CC)CCCCNc1ncc2cc(-c3cc(OC)cc(OC)c3)c(NC(=O)NC(C)(C)C)nc2n1 [PD173074] (first compound 1 µM, partner dose 0.1 µM)	96.1	98.8	111	115	127	122
O=c1[nH]nc(Sc2ncc([N+](=O)[O-])s2)n1-c1ccc2c(c1)OCCO2 + C#Cc1cccc(Nc2ncnc3cc(OCCOC)c(OCCOC)cc23)c1 [erlotinib] (first compound 0.2 µM, partner dose 0.8 µM)	88.5	95.9	84.2	107	96.8	109
O=c1[nH]nc(Sc2ncc([N+](=O)[O-])s2)n1-c1ccc2c(c1)OCCO2 + O=C(O)[C@@H]1[O][Sb](=[O])([O][Sb]2(=[O])[O][C@H]([C@H](O)CO)[C@H](O)[C@H](C(=O)O)[O]2)[O][C@H]([C@H](O)CO)[C@@H]1O [stibogluconate] (first compound 0.2 µM, partner dose 2 µM)	108	102	87.1	89.3	85	84.2
O=c1[nH]nc(Sc2ncc([N+](=O)[O-])s2)n1-c1ccc2c(c1)OCCO2 + CC(C)C[C@H](NC(=O)[C@H](Cc1ccccc1)NC(=O)c1cnccn1)B(O)O [Bortezomib] (first compound 0.2 µM, partner dose 0.001 µM)	103	96.7	87.4	111	65.9	91.5
O=c1[nH]nc(Sc2ncc([N+](=O)[O-])s2)n1-c1ccc2c(c1)OCCO2 + O=C(O)C(=O)Nc1sc2c(c1C(=O)O)CCNC2 [TCS401] (first compound 0.2 µM, partner dose 1.66667 µM)	94.9	98.8	78.8	95.5	96.1	98.2
CC1(C)NC(=O)N(c2ccc([N+](=O)[O-])c(C(F)(F)F)c2)C1=O [nilutamide] + O=C(O)C(=O)Nc1sc2c(c1C(=O)O)CCNC2 [TCS401] (first compound 1 µM, partner dose 1.66667 µM)	78.7	104	79.7	90.3	104	99.8
O=c1[nH]nc(Sc2ncc([N+](=O)[O-])s2)n1-c1ccc2c(c1)OCCO2 + CC1(C)NC(=O)N(c2ccc([N+](=O)[O-])c(C(F)(F)F)c2)C1=O [nilutamide] (first compound 0.2 µM, partner dose 1 µM)	106	114	96	122	139	116
O=c1[nH]nc(Sc2ncc([N+](=O)[O-])s2)n1-c1ccc2c(c1)OCCO2 + COc1cc(Nc2ncc(F)c(Nc3ccc4c(n3)NC(=O)C(C)(C)O4)n2)cc(OC)c1OC [Tamatinib] (first compound 0.2 µM, partner dose 0.4 µM)	76.2	88.7	75.1	88.5	101	86.6
O=C(O)c1ccc(-c2c[nH]c3ncc(-c4ccccc4)cc23)cc1C1CCCC1 + COc1cc2ncnc(Nc3ccc(Oc4ccccc4)cc3)c2cc1OC [SrcI1] (first compound 0.16 µM, partner dose 2 µM)	93.2	108	92.8	89.2	96.8	114
C[C@@H]1CCN(C(=O)CC#N)C[C@@H]1N(C)c1ncnc2[nH]ccc12 + CCCCCCCCCCCC1=C(O)C(=O)C=C(O)C1=O [Embelin] (first compound 1 µM, partner dose 1.2 µM)	104	108	108	106	108	91.8
O=c1[nH]nc(Sc2ncc([N+](=O)[O-])s2)n1-c1ccc2c(c1)OCCO2 + COc1ccc(-c2ccc3c(N4CCOCC4)nc(N4C[C@@H](C)O[C@@H](C)C4)nc3n2)cc1CO [KU0063794] (first compound 0.2 µM, partner dose 0.02 µM)	108	106	104	108	99.2	99.7
O=c1[nH]nc(Sc2ncc([N+](=O)[O-])s2)n1-c1ccc2c(c1)OCCO2 + Nc1cccc2c1CN(C1CCC(=O)NC1=O)C2=O [lenalidomide] (first compound 0.2 µM, partner dose 1 µM)	96.2	102	104	102	96.3	102
COc1cc(Nc2ncc(F)c(Nc3ccc4c(n3)NC(=O)C(C)(C)O4)n2)cc(OC)c1OC [Tamatinib] + Cc1cc(N2CCOCC2)cc2[nH]c(-c3c(NC[C@@H](O)c4cccc(Cl)c4)cc[nH]c3=O)nc12 [BMS536924] (first compound 0.4 µM, partner dose 0.2 µM)	77.4	99	36.4	78.2	75.9	65.6
Cn1cncc1[C@@](N)(c1ccc(Cl)cc1)c1ccc2c(c1)c(-c1cccc(Cl)c1)cc(=O)n2C [tipifarnib] + N#Cc1c(O)c2c(-c3ccc(-c4ccccc4O)cc3)csc2[nH]c1=O [A769662] (first compound 0.01 µM, partner dose 2 µM)	92.6	74.8	86.7	110	79.6	88.6
O=c1[nH]nc(Sc2ncc([N+](=O)[O-])s2)n1-c1ccc2c(c1)OCCO2 + Oc1nc(-c2ccc(C(F)(F)F)cc2)nc2c1CSCC2 [XAV939] (first compound 0.2 µM, partner dose 2 µM)	87.3	64.1	94.2	98.9	95.5	84.1
O=c1[nH]nc(Sc2ncc([N+](=O)[O-])s2)n1-c1ccc2c(c1)OCCO2 + COc1ccc(C2=N[C@@H](c3ccc(Cl)cc3)[C@@H](c3ccc(Cl)cc3)N2C(=O)N2CCNC(=O)C2)c(OC(C)C)c1 [Nutlin-3] (first compound 0.2 µM, partner dose 0.1 µM)	100	107	81.9	103	112	103
O=c1[nH]nc(Sc2ncc([N+](=O)[O-])s2)n1-c1ccc2c(c1)OCCO2 + Cc1cc([N+](=O)[O-])ccc1NS(=O)(=O)c1cc(Cl)ccc1Cl [FH535] (first compound 0.2 µM, partner dose 1 µM)	94.6	99.5	93.4	81.5	126	91.5
C[C@@H]1CCN(C(=O)CC#N)C[C@@H]1N(C)c1ncnc2[nH]ccc12 + O=C(Nc1ccccc1)c1cc([N+](=O)[O-])ccc1Cl [GW9662] (first compound 1 µM, partner dose 2 µM)	109	104	106	108	103	123
O=c1[nH]nc(Sc2ncc([N+](=O)[O-])s2)n1-c1ccc2c(c1)OCCO2 + C[C@]1(O)C[C@@H](c2nc(-c3ccc4ccc(-c5ccccc5)nc4c3)c3c(N)nccn32)C1 [OSI906] (first compound 0.2 µM, partner dose 0.4 µM)	96.9	93.9	78.6	88.9	83	98.4

From the supplement of paper PMC4604168 (melanoma cell lines)
